# Experimental data from the antibiotic and cytotoxicity screens of Wong et al. (2023).
# This is one part of the list.
# System: HepG2
# Experiment: cytotoxicity call (relative viability < 0.9)
# Settings: 10 µM
row,SMILES,cytotoxicity call
1,COc1ccc(S(=O)(=O)Nc2cccc3c2O[C@H](CN(C)S(=O)(=O)c2cccs2)[C@H](C)CN([C@@H](C)CO)C3=O)cc1,inactive
2,C/C=C1\[C@H](O[C@@H]2O[C@H](CO)[C@@H](O)[C@H](O)[C@H]2O)OC=C(C(=O)O)[C@H]1CC(=O)OCCc1ccc(O)cc1,inactive
3,CCN1CC[C@]2(CN(S(C)(=O)=O)CC23CCN(Cc2cnn(C)c2)CC3)C1=O,inactive
4,COC1=C(CC=C(C)C)C(=O)c2ccccc2C1=O,active
5,Cc1cc(C(=O)Nc2cccc3c2O[C@H](CN(C)C(=O)NC(C)C)[C@@H](C)CN([C@H](C)CO)C3=O)n(C)n1,inactive
6,C[C@@H]1CN([C@@H](C)CO)C(=O)c2c(c3ccccc3n2C)-c2ccccc2CO[C@H]1CN(C)Cc1ccc(-c2ccccc2)cc1,inactive
7,CCCCC(CC)COc1ccc(-c2nc(-c3ccc(OC)cc3)nc(-c3ccc(OCC(CC)CCCC)cc3O)n2)c(O)c1 (stereo not given),inactive
8,C[C@H]1CN([C@@H](C)CO)C(=O)c2cc(NC(=O)Nc3ccc(C(F)(F)F)cc3)ccc2O[C@@H]1CN(C)CC1CCCCC1,inactive
9,C[C@@H]1CCCCO[C@@H](CN(C)C(=O)NC2CCCCC2)[C@H](C)CN([C@@H](C)CO)C(=O)c2cc(NS(=O)(=O)c3ccccc3)ccc2O1,active
10,C[C@@H]1CN([C@@H](C)CO)C(=O)c2cccc(NC(=O)c3cnccn3)c2O[C@@H]1CN(C)C(=O)NC1CCCCC1,inactive
11,Cc1ccc(S(=O)(=O)N(C)C[C@H]2OCCCC[C@@H](C)Oc3ccc(NC(=O)c4ccccc4)cc3C(=O)N([C@@H](C)CO)C[C@H]2C)cc1,inactive
12,O=C([C@H]1[C@H](CO)[C@H]2Cn3c(cccc3=O)[C@H]2N1C(=O)C1CCCC1)N1CCOCC1,inactive
13,C[C@H]1CN([C@@H](C)CO)C(=O)c2cccc(NC(=O)C3CCOCC3)c2O[C@H]1CN(C)Cc1ccc(C(=O)O)cc1,inactive
14,COC(=O)C1=C(C)NC(C)=C(C(=O)OCC(C)C)[C@@H]1c1ccccc1[N+](=O)[O-],inactive
15,C[C@@H]1CN([C@@H](C)CO)C(=O)c2cc(NS(=O)(=O)c3ccccc3)ccc2O[C@@H](C)CCCCO[C@H]1CN(C)S(=O)(=O)c1ccc(Cl)cc1,inactive
16,C[C@@H]1CN([C@H](C)CO)S(=O)(=O)c2ccc(C3=CCCC3)cc2O[C@H]1CN(C)C(=O)c1cnccn1,inactive
17,C[C@@H]1CN([C@H](C)CO)C(=O)c2cccc(NC(=O)CCCCCC(=O)Nc3ccccc3N)c2O[C@@H]1CN(C)Cc1ccc(-c2ccccc2)cc1,active
18,COc1ccccc1C#Cc1ccc2c(c1)O[C@H](CN(C)Cc1cncnc1)[C@@H](C)CN([C@H](C)CO)S2(=O)=O,inactive
19,CC(C)NC(=O)N(C)C[C@H]1Oc2c(NS(=O)(=O)c3ccccc3)cccc2C(=O)N([C@@H](C)CO)C[C@H]1C,inactive
20,CSc1ccc(Sc2ccc(SC)cc2)cc1,inactive

row,SMILES,cytotoxicity call
1,C[C@H]1CN([C@@H](C)CO)S(=O)(=O)c2ccc(C#CC(C)(C)O)cc2O[C@@H]1CN(C)C(=O)C1CCCCC1,inactive
2,Cc1ccc(S(=O)(=O)N(C)C[C@H]2Oc3ccc(NC(=O)Nc4cccc5ccccc45)cc3CC(=O)N([C@@H](C)CO)C[C@H]2C)cc1,inactive
3,NCCCc1nc2c(s1)CCCC2,inactive
4,COC(=O)CN(C)c1nnc(N)s1,inactive
5,O=c1c(-c2ccc(O)cc2)coc2cc(O[C@@H]3O[C@H](CO)[C@@H](O)[C@H](O)[C@H]3O)ccc12,inactive
6,C[C@@H]1CN([C@H](C)CO)C(=O)Cc2cc(NC(=O)Cc3ccccc3)ccc2O[C@H]1CN(C)Cc1ccc(Oc2ccccc2)cc1,inactive
7,CCn1c(C)cn2c3c(=O)n(CCN4CCOCC4)c(=O)n(C)c3nc12,inactive
8,C[C@@H]1CN([C@@H](C)CO)C(=O)Cc2cc(NS(=O)(=O)c3ccccc3)ccc2O[C@H]1CN(C)S(=O)(=O)c1cn(C)cn1,inactive
9,C[C@H]1CN([C@@H](C)CO)C(=O)Cc2cc(NC(=O)Cn3cnnn3)ccc2O[C@H]1CN(C)Cc1ccc(C(=O)Nc2ccccc2N)cc1,inactive
10,C[C@H]1CN([C@@H](C)CO)C(=O)CCCn2nncc2CO[C@H]1CN(C)S(=O)(=O)c1ccc2ccccc2c1,inactive
11,COc1ccccc1-c1ccc2c(c1)O[C@H](CN(C)CC1CCOCC1)[C@@H](C)CN([C@@H](C)CO)S2(=O)=O,inactive
12,COc1ccc(NC(=O)Nc2cccc3c2O[C@H](CN(C)C(=O)Nc2cccc4ccccc24)[C@H](C)CN([C@H](C)CO)C3=O)cc1,active
13,Cc1ccc(NC(=O)c2ccc(CN3CC[C@H](N(C)C)C3)c(C(F)(F)F)c2)cc1Nc1nccc(-c2cncnc2)n1,active
14,C[C@@H]1CCCCO[C@H](CN(C)C(=O)Nc2ccccc2)[C@H](C)CN([C@H](C)CO)C(=O)c2cc(NC(=O)Nc3ccccc3)ccc2O1,inactive
15,Cc1ccc(S(=O)(=O)N(C)C[C@@H]2Oc3c(NS(=O)(=O)c4cn(C)cn4)cccc3C(=O)N([C@H](C)CO)C[C@H]2C)cc1,inactive
16,C[C@@H]1CCCCO[C@H](CN(C)S(=O)(=O)c2ccc(Cl)cc2)[C@H](C)CN([C@H](C)CO)C(=O)c2cc(NC(=O)C3CCCCC3)ccc2O1,active
17,C[C@@H]1CN([C@@H](C)CO)S(=O)(=O)c2ccc(C#Cc3ccncc3)cc2O[C@H]1CN(C)C(=O)C1CCCCC1,active
18,Cc1ccc(S(=O)(=O)N2C[C@H](O)COC[C@H]3O[C@@H](CC(=O)N[C@H]4CCN(Cc5ccccc5)C4)CC[C@@H]32)cc1,inactive
19,CC(=O)N1CCOC[C@@]2(C1)CN(S(C)(=O)=O)CCO2,inactive
20,COc1cccc(NC(=O)N(C)C[C@H]2OCc3ccccc3-c3c(n(C)c4ccccc34)C(=O)N([C@@H](C)CO)C[C@H]2C)c1,inactive
